Measurements reported in the supplement of paper PMC8728848.
The list shows a part of the results.

How the values were obtained:
Assay in all cases: glycan array binding signal (z-score within array); higher = stronger binding
Conditions in all cases: glycan notation: IUPAC condensed, linker removed
[1] = molecular target: Neu5Ac(a2-6)Gal(b1-4)GlcNAc(b1-3)GalNAc
Summary of the method: (§1)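 Glycan array data came from 3228 arrays in the Consortium for Functional Glycomics database, and only arrays with an available protein sequence were kept. Glycan names were put into IUPAC-condensed notation, and columns mapping to the same glycan were averaged. The binding signal is a within-array Z-score, averaged across arrays of one protein sequence run at different concentrations or buffers and across linkers. A negative Z-score can be read as non-binding.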

[2] = molecular target: Neu5Ac(a2-6)Gal(b1-4)GlcNAc6S
Summary of the method: as §1

Neu5Ac(a2-6)GalNAc = molecular target: Neu5Ac(a2-6)GalNAc
Summary of the method: as §1

[3] = molecular target: Neu5Ac(a2-6)GalNAc(b1-4)GlcNAc
Summary of the method: as §1

[4] = molecular target: Neu5Ac(a2-6)GlcNAc(b1-4)GlcNAc
Summary of the method: as §1

[5] = molecular target: Neu5Ac(a2-6)GlcNAc(b1-4)GlcNAc(b1-4)GlcNAc
Summary of the method: as §1

Neu5Ac(a2-8)Neu5Ac = molecular target: Neu5Ac(a2-8)Neu5Ac
Summary of the method: as §1

[6] = molecular target: Neu5Ac(a2-8)Neu5Ac(a2-3)Gal(b1-4)Glc
Summary of the method: as §1

[7] = molecular target: Neu5Ac(a2-8)Neu5Ac(a2-3)[Gal(b1-3)GalNAc(b1-4)]Gal(b1-4)Glc
Summary of the method: as §1

[8] = molecular target: Neu5Ac(a2-8)Neu5Ac(a2-3)[GalNAc(b1-4)]Gal(b1-4)Glc
Summary of the method: as §1

[9] = molecular target: Neu5Ac(a2-8)Neu5Ac(a2-8)Neu5Ac
Summary of the method: as §1

[10] = molecular target: Neu5Ac(a2-8)Neu5Ac(a2-8)Neu5Ac(a2-3)Gal(b1-4)Glc
Summary of the method: as §1

[11] = molecular target: Neu5Ac(a2-8)Neu5Ac(a2-8)Neu5Ac(a2-3)[GalNAc(b1-4)]Gal(b1-4)Glc
Summary of the method: as §1

[12] = molecular target: Neu5Ac(a2-8)Neu5Ac(a2-8)Neu5Ac(a2-8)Neu5Ac(a2-3)[GalNAc(b1-4)]Gal(b1-4)Glc
Summary of the method: as §1

[13] = molecular target: Neu5Ac(b2-6)Gal(b1-4)GlcNAc
Summary of the method: as §1

Neu5Ac(b2-6)GalNAc = molecular target: Neu5Ac(b2-6)GalNAc
Summary of the method: as §1

[14] = molecular target: Neu5Ac9Ac(a2-3)Gal(b1-3)GlcNAc
Summary of the method: as §1

[15] = molecular target: Neu5Ac9Ac(a2-3)Gal(b1-4)GlcNAc
Summary of the method: as §1

[16] = molecular target: Neu5Ac9Ac(a2-6)Gal(b1-4)GlcNAc
Summary of the method: as §1

[17] = molecular target: Neu5Gc(a2-3)Gal(b1-3)GlcNAc
Summary of the method: as §1

[18] = molecular target: Neu5Gc(a2-3)Gal(b1-3)[Fuc(a1-4)]GlcNAc
Summary of the method: as §1

Neu5Gc(a2-3)Gal(b1-4)Glc = molecular target: Neu5Gc(a2-3)Gal(b1-4)Glc
Summary of the method: as §1

[19] = molecular target: Neu5Gc(a2-3)Gal(b1-4)GlcNAc
Summary of the method: as §1

[20] = molecular target: Neu5Gc(a2-3)Gal(b1-4)[Fuc(a1-3)]GlcNAc
Summary of the method: as §1

[21] = molecular target: Neu5Gc(a2-6)Gal(b1-4)GlcNAc
Summary of the method: as §1

Neu5Gc(a2-6)GalNAc = molecular target: Neu5Gc(a2-6)GalNAc
Summary of the method: as §1

[22] = molecular target: Neu5Gc(b2-6)Gal(b1-4)GlcNAc
Summary of the method: as §1

B1: ASAL (Allium sativum), P83886 (protein)
chain: MGRTTSSPKAMMRIATVAAILTILASTCMARNVLTNGEGLYAGQSLDVEQYKFIMQDDCNLVLYEYSTPIWASNTGVTGKNGCRAVMQRDGNFVVYDVNGRPVWASNSVRGNGNYILVLQKDRNVVIYGSDIWSTGTYRRSVGGAVVMAMNGTVDGGSVIGPVVVNQNVTAAIRKVGTGAA
For B1, the “glycan array binding signal (z-score)” value [1] was -0.236, the “glycan array binding signal (z-score)” value [2] was -0.269 and the “glycan array binding signal (z-score)” value (Neu5Ac(a2-6)GalNAc) was -0.28. For the same binder, the “glycan array binding signal (z-score)” value [3] was -0.255, the “glycan array binding signal (z-score)” value [4] was -0.217 and the “glycan array binding signal (z-score)” value [5] was -0.29. For the same binder, the “glycan array binding signal (z-score)” value (Neu5Ac(a2-8)Neu5Ac) was -0.25, the “glycan array binding signal (z-score)” value [6] was -0.301 and the “glycan array binding signal (z-score)” value [7] was -0.185. The “glycan array binding signal (z-score)” value [8] was -0.236, the “glycan array binding signal (z-score)” value [9] was -0.259 and the “glycan array binding signal (z-score)” value [10] was -0.306. The “glycan array binding signal (z-score)” value [11] was -0.26, the “glycan array binding signal (z-score)” value [12] was -0.208 and the “glycan array binding signal (z-score)” value [13] was -0.298. The “glycan array binding signal (z-score)” value (Neu5Ac(b2-6)GalNAc) was -0.189, the “glycan array binding signal (z-score)” value [14] was -0.237 and the “glycan array binding signal (z-score)” value [15] was -0.3. For the same binder, the “glycan array binding signal (z-score)” value [16] was -0.244, the “glycan array binding signal (z-score)” value [17] was -0.271 and the “glycan array binding signal (z-score)” value [18] was -0.28. For the same binder, the “glycan array binding signal (z-score)” value (Neu5Gc(a2-3)Gal(b1-4)Glc) was -0.271, the “glycan array binding signal (z-score)” value [19] was -0.197 and the “glycan array binding signal (z-score)” value [20] was -0.247. The “glycan array binding signal (z-score)” value [21] was -0.255, the “glycan array binding signal (z-score)” value (Neu5Gc(a2-6)GalNAc) was -0.188 and the “glycan array binding signal (z-score)” value [22] was -0.28.
